PubChem BioAssay AID1508624 (National Center for Advancing Translational Sciences (NCATS), 2021)
The campaign covered roughly 48,000 compounds. About 120 (0.25%) were called active. Not shown: some 4% with an inconclusive outcome. The call rests on the fitted dose curve; in most records, active means well fitted activation curve with a large enough effect; inconclusive means small, poorly fitted or top-dose-only effect, or another doubt; inactive means no such curve, though single readings can be large or run the other way. The list shows a part of the results.

Experiment: Primary qHTS for Identification of Small Molecule Activators of Huntingtin-Antisense Promoter Activity; further: nearly all actives have a fitted effect of over 55% in size
Settings: HEK293 HTT-AS promoter firefly luciferase reporter, 24 h; series mostly up to 57.5 µM; activity change, positive = activation: at the top concentration
In short: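 HEK293 cells carrying firefly luciferase reporters were seeded at 2,500 per well in Opti-MEM and cultured for 24 h. They were then treated with compounds at up to 57.5 uM final for 24 h at 37 degrees C before Dual-Glo luminescence readout.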

Activity change, positive = activation, inactive:
O=C(COCc1cc(-c2ccco2)on1)Nc1cccc(Cl)c1Cl -6.72%, Cc1ccc(NC(=O)CSc2nc(-c3ccco3)cc(C(F)(F)F)n2)cc1C -28.9%, CCOc1ccccc1-n1nnc(S(=O)(=O)c2ccc(C)cc2)c1N -25.3%, COc1ccc(C2N3CC4(C)CN2CC(c2ccccc2)(C3)C4=O)cc1 (stereo unspecified) 1.34%, COC(=O)Nc1nc2ccc(S(=O)c3ccccc3)cc2[nH]1 (stereo unspecified), CCOc1ccc(NC(=O)c2oc3ccccc3c2NC(=O)Cc2cccc(C)c2)cc1 -2%, COc1ccc(OC)c(NS(=O)(=O)c2ccc(Br)s2)c1 -30.6%, CCn1cc(C(=O)O)c(=O)c2cc3c(cc21)OCO3 -14.5% [at 25.1 µM, percent change from vehicle, -100% = no light], O=C(Nc1ncc(SCCN2CCCC2)s1)[C@]1(c2ccc(S(=O)(=O)C3CC3)cc2)C[C@@H]1C1CCCCC1 -18.6%, CCC(C(=O)OCCN(CC)CC)c1ccccc1 (stereo unspecified) -2.06%, CC(C)c1ccc(NC(=O)CCNS(=O)(=O)c2cccc3nsnc23)cc1 -20.7%, COc1ccc(C(=O)Oc2ccc(C(c3c(C)[nH][nH]c3=O)c3c(C)[nH][nH]c3=O)cc2OC)cc1 0.979%, CN1CCN(CCC(=O)Nc2ccc(Cl)cc2)CC1 -13.7%, CCCN1C(C(=O)c2ccccc2)=C(OC(=O)c2ccc(C)cc2)c2ccccc2S1(=O)=O -35.5%, Cc1ccc(NC(=O)Cn2c(=O)ccc3cc(S(=O)(=O)N4CCC(C)CC4)ccc32)cc1C -37.3%, Cc1cccc(NC(=O)CSc2nc(=O)n(Cc3cccnc3)c3c2CCC3)c1 -38.5%, COc1cc(Cl)c(C)cc1NC(=O)c1cc2c(s1)-c1c(C)cccc1OC2 1.37%, Cc1cc(=O)oc2cc(O[C@@H]3SC[C@@H](O)[C@H](O)[C@H]3O)ccc12 1.95%, O=C(Cn1c(=O)nc(-c2ccccc2)c2cc(Cl)ccc21)NCCc1ccccc1 2.24%, CCc1nn(CC(=O)N2CCN(c3cccc(C)c3C)CC2)c(=O)c2cc3sccc3n12 -7.01%, CCC(=O)N1CCc2cc(S(=O)(=O)NC(CC(C)C)C(=O)NCc3ccc(C)cc3)ccc21 (stereo unspecified) -3.13%, Cc1ccc(O)c(-c2n[nH]c3c2C(c2ccccc2F)N(Cc2ccco2)C3=O)c1 (stereo unspecified) -39.4%, Cc1cc2[nH]c(=O)c(=O)[nH]c2cc1S(=O)(=O)Nc1cccc(C(F)(F)F)c1 -23%, Cc1sc2ncn(CC(=O)N3CCN(c4ccc(F)cc4)CC3)c(=O)c2c1S(=O)(=O)N1CCN(c2ncccn2)CC1 -19.4%, CCOc1ccc(NC(=O)CN2CCN(c3ccc(Cl)cc3)CC2)cc1 -18.5%, O=C(c1cc(F)cc(F)c1)N1CCC(c2nc(-c3ccc(S(=O)(=O)N4CCCC4)cc3)no2)CC1 -11.8%, COc1ccc(OC)c(CCNC(=O)c2cc3c(=O)n(C)c4ccccc4c3n2C)c1 -10.8%, CCc1cccc(NC(=O)CCN2C(=O)c3ccccc3Sc3ncccc32)c1 -25.6%, COc1ccc(CN(C(=O)Cc2coc3ccc(C)cc23)C2CCS(=O)(=O)C2)cc1 (stereo unspecified) -12.2%, CCOC(=O)c1cccc(NC(=O)C2CCCN(S(=O)(=O)c3cc(Br)cc4c3N(C(=O)CC)CC4)C2)c1 (stereo unspecified) -15.8%, Cc1cc(=O)n2nc(N(C)CC(=O)NCc3ccc(Cl)cc3)sc2n1 -12.8%, O=C(NCC1CCN(Cc2ccc(F)cc2)CC1)c1cc2ccc3cccnc3c2[nH]1 -17.7%, CCOc1ccc(NC(=O)Cn2c(=O)oc3cc(S(=O)(=O)N4CCC(C)CC4)ccc32)cc1 -48.7%, COc1cc(NC(=O)CC(C)S(=O)(=O)c2cc3c4c(c2)CCN4C(=O)CC3)cc(OC)c1 (stereo unspecified) 11.3%, Cc1ccccc1C(=O)Nc1cccc(C(=O)OCc2cc(=O)n3nc(C4CC4)sc3n2)c1 27.8%, COc1ccc(Cn2c(CO)cnc2SCC(=O)NCc2ccco2)cc1 -11.6%, Cc1ccc(C)c(CN2C(=O)c3ccccc3Sc3ccc(C(=O)NCc4ccc5c(c4)OCO5)cc32)c1 -19.7%, COc1cc2nc(SCC(=O)Nc3cccc(C)c3)n3nc(-c4ccccc4)nc3c2cc1OC -11%, COc1ccc(NC(=O)c2c(NC(=O)c3cccc(C)c3)sc3c2CCCC3)cc1 -15%, Cc1ccc([N+](=O)[O-])cc1S(=O)(=O)N1CCn2cccc2C1c1ccc(F)c(F)c1 (stereo unspecified) -19.3%, CC(=O)c1cccc(NC(=O)c2ccc3nc(C(C)C)oc3c2)c1 -4.69%, COc1ccc(-c2nc(Cn3c(SCc4ccc(F)cc4)nc4cccnc43)c(C)o2)cc1 -29%, Cc1ccccc1NC(=O)Nc1cccs1 5.56%, O=C1c2oc3ccccc3c(=O)c2C(c2cccc(Br)c2)N1c1ccccn1 (stereo unspecified) -7.47%, CCCCN(C)C(=O)Cn1cnc2sc(C)c(S(=O)(=O)N3CCN(c4ccccc4OC)CC3)c2c1=O 15.9%, CCn1ccnc1CC1COc2ccccc2O1 (stereo unspecified) 12.2%, CNC(=O)c1ccc(NC(=O)COc2ccc(-c3nn(C)c(=O)c4ccccc34)cc2)cc1 -24.3%, Cc1ccc(OCC(=O)N(Cc2sccc2C)C2CCS(=O)(=O)C2)cc1 (stereo unspecified) -4.55%, CCOC(=O)c1[nH]c2ccccc2c1NC(=O)c1cc(OCC)c(OCC)c(OCC)c1 -13.7%, Cc1ccc2onc(CC(=O)N3CCN(c4cccc(C)c4C)CC3)c2c1 -32.5%, Cc1cc(=O)n2nc(N3CCC(C(=O)NCc4ccc(Cl)cc4)CC3)sc2n1 -7.05%, CCOc1ccc(NC(=O)Cn2c(CCC(=O)O)ccc2-c2ccc(C)cc2)cc1 -8.02%, COc1ccc(-c2noc(CSc3nnc(-c4ccncc4)n3-c3ccc(C)c(C)c3)n2)cc1 -30.7%, Clc1ccc(Nc2nc(-c3ccccc3)c3cc(Cl)ccc3n2)cc1 -26.7%, COc1ccc(Cl)cc1NC(=O)Cn1cc(S(=O)(=O)Cc2cccc(Cl)c2)c2ccccc21 -22.1%, CCc1ccccc1Nc1nn2c(=O)c3ccc(C(=O)NCc4ccccc4Cl)cc3nc2s1 -32.4%, CCCCOc1ccc(C(=O)N(Cc2nc(-c3ccc(Cl)cc3)no2)C(C)C)cc1 -20.8%, Cc1ccc(Cn2c(C)c(CNCc3ccc(OC(C)C)cc3)c(C(=O)O)c2C)cc1 -25.6%, COc1ccc(CC(=O)NCCc2sc(-c3cccc(F)c3)nc2C)cc1 -29.7%, CC(C)=CCC/C(C)=C/CO 0.0864%, Cn1c(=O)oc2cc(S(=O)(=O)N3CCC(C(=O)N4CCN(c5cccc(Cl)c5)CC4)CC3)ccc21 -42.9%
